Measured values as given in patent US12551573B2, “Compositions and methods for the targeting of PCSK9” (Scribe Therapeutics Inc., priority 2022, dated 2026).
Positions count from the first letter of the chain named. Read-outs that look alike come from different tables or passages of the source.

B1: DOMAIN_17752 (protein, listed as Leptonychotes weddellii)
chain: SQEPVTFEDVAVYFTQNQWASLDPMQRALYLEVMLENYANITSLALPFPKPDLILQLEQGEAPWDLDPWTPLEGEALEGVH
B2: DOMAIN_17632 (protein, listed as Monodelphis domestica)
chain: PQAAMTFQDVAVDFTREEWRLLEPPQKELYWEVMLENYRNLVCLGLTVSKPDVISQLEQGEAPWRLEGGSARGRCLDWGMR
B3: DOMAIN_28640 (protein, listed as Colinus virginianus)
chain: GEEPVNFEEVAVYFSREEWALLDPAQRALYRDVMLETYECVASLAPLPAPKPMVISLLEEGEEPWIPDVGSPEAVAGDVSP
B4: DOMAIN_17547 (protein, listed as Neomonachus schauinslandi)
chain: FEESVTFEDVAVYFSENEWTGLAPAQRVLYRDVMLENYGAVASLAFPFPKPALISQLERGEAPWCKAPQGALDGGGPRGIS
B5: DOMAIN_17714 (protein, listed as Monodelphis domestica)
chain: FQGLVTFQDVAVIFSLDEWGHLDPAQRELYREVMLENYQTLACLGLAVSKPDVIAQLEQGGAPWKLEKDIPASPCPGEQYV
B6: DOMAIN_17134 (protein, listed as Panthera pardus)
chain: AQESLTLEDVAVDFSREEWRLLAPAQKDLYRDVMLENFRNLVSVGHQASKPDVLAKLERGEEPWAIEEEVRSGTSPETGKV
B7: DOMAIN_17177 (protein, listed as Physeter macrocephalus)
chain: VQESVTFKDVAVLFTQDEWAQLSPAQRALYRDVMLENYSNLVSLGLLGPKPDVFSQLGKGEEWMPEDSLGGFCLDWMTTPV
B8: DOMAIN_17798 (protein, listed as Pongo sp.)
chain: VQEPVTFKDVAVDFTQEEWGQLDLVQRTLYRDVMLETYGHLLSVGNQIAKPEVISLLEQGEEPWSVEQACPQRTCSEWVRN
B9: DOMAIN_17516 (protein, listed as Monodelphis domestica)
chain: SQGSITFKDVAVDFTQEEWCLLDHSQKALHLEVMLENVQNLLSVGLPVPRENFISCFQQGKAPYLLQQNDPKSSSPEAETN
B10: DOMAIN_17383 (protein, listed as Leptonychotes weddellii)
chain: PQESVTFKDIAVDFTQEEWALLDTSQRKLYRDVMLENISHLVSVGYHLCKSDVISQLEQGVELWREGRGFPQGLNPDRKSG
B11: DOMAIN_17236 (protein, listed as Rhinolophus ferrumequinum)
chain: WKEELSFEDVAVNFTREEWNKLDWTQRDLYRDVMLENYRNMILLGFQFPKPEVICQLEQWEDPWILDLPRAGTRKASSNAC
B12: DOMAIN_28803 (protein, listed as Monodelphis domestica)
chain: SQESVTFQDVTVDFTQEEWCMLDCSQKKLYREVMLENVQNLLSVGLPVPRENLLSSCQQGDSPWLLEQKGTRIFRADAEIC
B13: DOMAIN_17278 (protein, listed as Tursiops truncatus)
chain: SKAPVTFGDLAIYFSQEEWEWLSPIQKDLYEDVMLENYQNLVSLGLSFRRPNVITLLEKGKAPWMVEPVKRRRGLDLGSKC
B14: DOMAIN_17139 (protein)
chain: PQKSVTFEDVAVYFTQTEWDGLSPAQRALYRDVMLENYGNVASLGFSLLKPAVISQLEGAGELEGPSPLVAGTEIGPQGLW
modifications: Ursus arctos
B15: DOMAIN_17509 (protein, listed as Physeter macrocephalus)
chain: YQGLVSFEDVAVNFTWEEWQDLDAAQRTLYRDVMLENYSSLVSLGHCITKPEVIIKLEQGAAPWTVKETPDQGSPDVQIVD
B16: DOMAIN_17574 (protein)
chain: MAQVTFSDVAIDFSHEEWAWLDSAQRDLYKDVMVQNYENLVSVGLSVTKPYVITLLEDGKEPWMVEKKLSKGMIPDWESRW
modifications: Cercocebus atys
B17: DOMAIN_17241 (protein)
chain: MGRLMFQDVAIDFTQEEWECLDLSQRDLYRDVMLETYGNLASLGLVVSKPDLVTFLEQMKNPWDVRRTDTKATYPAVSSHN
modifications: Muntiacus muntjak
B18: DOMAIN_17748 (protein, listed as Leptonychotes weddellii)
chain: LQEAIVFEDVAVYFTRIEWSCLAPHQRALYRDVMLENYGHMASLGFLVAKPALISLLEQGEEPGALILQGTEEQGSTASLC
B19: DOMAIN_17153 (protein)
chain: LLTFEDVAVSFSEEEWKLLDPSQKILYNDVMQENYETVISLGLKLKNDTGNDQPISLSALEIQASGGKVLRKARMKVAQKT
modifications: Ursus arctos
B20: DOMAIN_17108 (protein)
chain: MAASQESLTFKDVSVDFSLEEWECLDPAQRKLYSDVMLENYSNLVSLGLVVSKPGLVTFLEQMQEVWDVSRKKSISTPPGR
modifications: Phyllostomus discolor
B21: DOMAIN_17483 (protein)
chain: MEGLVMFQDLFIDFSQEEWECLDTAQKDLYRDVMMENYSSLVSLGLCIPKPDVISLLEQGKEPWMVSRDVLGGWCPDSEFR
modifications: Cercocebus atys
B22: DOMAIN_17421 (protein)
chain: AQESVMFSDVSIDFSQEEWECLNDDQRDLYRDVMLENYSHLVSMGHSVSKPDVISFLEQGKEPWLVDRELTRDQWPVLESR
modifications: Vulpes vulpes
B23: DOMAIN_17340 (protein, listed as Leptonychotes weddellii)
chain: ARASLSFEDVAVGFSWEEWQLLAPSQKDLYREVMLENYRNLVSVGYQASKPDSLFHLEQGEPPWTVVGAAQSQTCQEIWEI
B24: DOMAIN_17704 (protein, listed as Neomonachus schauinslandi)
chain: B23 chain with H56Q, I78E, W79I, E80W, I81E
B25: DOMAIN_17412 (protein)
chain: SQSPLTFGDVAVEFSGEEWAWLDSAQRSLHRSVMLENYRNLASLGLCLSKPEMISSLEQRKEPWAVKRKSTGGECADSQTL
modifications: Ovis aries
B26: DOMAIN_17062 (protein, listed as Rhinopithecus roxellana)
chain: VHGSVTFRDVAIDFSQEEWECLQPEQRTLYRDVMLENYSHLISLGSSISKPDVITLLEQEKEPWMVVRKETSRWYPDLESK
B27: DOMAIN_17105 (protein, listed as Macaca mulatta)
chain: B26 chain with E25D, T28N, M65I
B28: DOMAIN_30661 (protein, listed as Physeter macrocephalus)
chain: VTFEDVAVNFTLEEWALLDPSQKKLYRDVMRETLRNLASVGEKWEDHDIEDQYKNQGRKLRSHVLERLCESKEGSQCGENFSLIPNL
B29: DOMAIN_17202 (protein)
chain: TQGSLSFRDVTVGFTQEEWQHLDPAQRSLYRDVMLENYSHLVSLGYSISKPEVILKLEQGEEPWILEEEFPSQSDLELIKS
modifications: Ursus arctos
B30: DOMAIN_17333 (protein, listed as Camelus dromedarius)
chain: AQETVTFKDVAVDFTQEEWGQLDPVQRTLYRDVMLETYGHLLSVGNQIAKPEVISLLEQGEEPWSMDRVYPPQRTCPEWMR
B31: DOMAIN_17671 (protein, listed as Monodelphis domestica)
chain: LQASVTFEDVAVDFSAEEWRRLRPLQRELYREVMLENYRSLAWLGLAASKPGVICRLERGEAPREPDPDGPQSGWADCGTG
B32: DOMAIN_17662 (protein, listed as Monodelphis domestica)
chain: AQEAVTFKDVAVDFTREEWRLLSPPQKELYKEVMLENAQNLLTVGLPAPPENVISALGAEGSPVDARGRRPEGACCPGEII
B33: DOMAIN_17658 (protein, listed as Monodelphis domestica)
chain: PQELVTFQDVAVYFTPEEVRYLDSYQKALYKDVMLENYGNMASLGFPLSKPVLISQLERGEEPWAMDPLVAKERKTRRGTS
B34: DOMAIN_17525 (protein, listed as Myotis davidii)
chain: SMGSDLFRDVAVVFSREEWERLAPAQRDLYRDVMLETYSHLRSLDLAISKPDVIAFLEQGEEPWRAEEAARDGLCPVDWEC
B35: DOMAIN_17717 (protein, listed as Physeter macrocephalus)
chain: AHVSLSFRDVAIDLSQEEWECLDPVQRALYRDVMLENYSNLVSLGCSSPKPDVITLLEQEKEPWTVMREGTRSWYTDLESK
B36: DOMAIN_17279 (protein)
chain: KPLAVRFADVAVYFSPEEWGYLRPAQRALYRDVMQETYGHLGALGFPGPKPALISWMEQESEAWSPAAQDPEEGENLGGAL
modifications: Bison bison
B37: DOMAIN_17871 (protein, listed as Leptonychotes weddellii)
chain: AHGSVMFNDVSIVFSQEEWEYLDLEQRDLYRDVMLENYSNLVSLGCFISKPDVISLLEQGKEPWKVVRKGRRRYPDLETRY

Test system: HBEGF locus
Format: cell-based, human
Conditions: high-throughput screen of dXR repression of the HBEGF gene
[1] = abundance of each domain in the library before and after diphtheria toxin selection, HEK293T cells
[2] = change in abundance of each domain in the library before and after diphtheria toxin selection

| Molecule | Log2 (fold change) [1] | Log2 (fold change) [2] |
| --- | --- | --- |
| B1 | 3.2541 |  |
| B2 | 3.3689 |  |
| B3 |  | 3.624 |
| B4 | 3.2455 |  |
| B5 | 2.2724 |  |
| B6 | 3.2502 |  |
| B7 | 3.2446 |  |
| B8 | 3.3458 |  |
| B9 | 3.1523 |  |
| B10 | 2.953 |  |
| B11 | 2.7166 |  |
| B12 |  | 3.0697 |
| B13 | 3.4898 |  |
| B14 | 4.0326 |  |
| B15 | 3.438 |  |
| B16 | 3.4893 |  |
| B17 | 2.2217 |  |
| B18 | 3.0918 |  |
| B19 | 2.1759 |  |

| Molecule | Log2 (fold change) [1] | Log2 (fold change) [2] |
| --- | --- | --- |
| B20 | 2.4499 |  |
| B21 | 3.5742 |  |
| B22 | 3.3129 |  |
| B23 | 3.1536 |  |
| B24 | 3.1047 |  |
| B25 | 4.9319 |  |
| B26 | 3.2594 |  |
| B27 | 2.637 |  |
| B28 |  | 2.15 |
| B29 | 2.6589 |  |
| B30 | 2.8765 |  |
| B31 | 3.0937 |  |
| B32 | 2.7612 |  |
| B33 | 3.8781 |  |
| B34 | 3.4986 |  |
| B35 | 2.9442 |  |
| B36 | 3.591 |  |
| B37 | 3.1894 |  |
